# Shown are siRNA guide strands that differ only in the seed, positions 2 to 7.
# How the values were obtained:
# [1] = test system: GL261; test: cell viability relative to siNT1 (ATP content); H4 human neuroglioma and GL261 mouse glioma; higher = less toxic; details: siRNA concentration 25 nM; 96 h; mouse
# Protocol: (§1)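 Arrayed screen of all 4096 6mer seeds. Each seed sits at guide-strand positions 2-7 of a neutral 19mer siRNA backbone (siNT1-based, passenger strand 2'-O-methyl modified at positions 1-2 to block RISC loading, 3' DNA overhangs). The guide strand is built here as U + seed + ACAUGUAAACCA. Cells were reverse transfected in triplicate in 384-well plates (H4 at 10 nM, GL261 at 25 nM) with Lipofectamine RNAiMAX. Viability was read as ATP content (CellTiter-Glo) 96 h after transfection and normalised to siNT1 (%).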
# [2] = test system: H4; test: as above; details: siRNA concentration 10 nM; 96 h; human
# Protocol: as §1
# 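Also: cells reverse transfected with siRNA duplexes via lipid reagent, ATP read by luminescence, triplicate wells, values scaled to mean viability with non-targeting control siNT1.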
sequence,measurement,setting,value
UAAAAAAACAUGUAAACCA,cell viability,[1],86%
same,cell viability,[2],85.6%
UAAAAACACAUGUAAACCA,cell viability,[1],54.4%
same,cell viability,[2],89.2%
UAAAAAGACAUGUAAACCA,cell viability,[1],72.7%
same,cell viability,[2],99.7%
UAAAAAUACAUGUAAACCA,cell viability,[1],55.9%
same,cell viability,[2],87%
UAAAACAACAUGUAAACCA,cell viability,[1],65.3%
same,cell viability,[2],101%
UAAAACCACAUGUAAACCA,cell viability,[1],36.9%
same,cell viability,[2],71.6%
UAAAACGACAUGUAAACCA,cell viability,[1],50%
same,cell viability,[2],79.9%
UAAAACUACAUGUAAACCA,cell viability,[1],68.8%
same,cell viability,[2],83.3%
UAAAAGAACAUGUAAACCA,cell viability,[1],68.4%
same,cell viability,[2],99.2%
UAAAAGCACAUGUAAACCA,cell viability,[1],46.5%
same,cell viability,[2],77.2%
UAAAAGGACAUGUAAACCA,cell viability,[1],56.4%
same,cell viability,[2],91.3%
UAAAAGUACAUGUAAACCA,cell viability,[1],59.8%
same,cell viability,[2],73.3%
UAAAAUAACAUGUAAACCA,cell viability,[1],55.7%
same,cell viability,[2],82.7%
UAAAAUCACAUGUAAACCA,cell viability,[1],39.9%
same,cell viability,[2],87.8%
UAAAAUGACAUGUAAACCA,cell viability,[1],62.7%
same,cell viability,[2],102%
UAAAAUUACAUGUAAACCA,cell viability,[1],60.9%
same,cell viability,[2],85.5%
UAAACAAACAUGUAAACCA,cell viability,[1],59%
same,cell viability,[2],103%
UAAACACACAUGUAAACCA,cell viability,[1],58.3%
same,cell viability,[2],101%
UAAACAGACAUGUAAACCA,cell viability,[1],53.9%
same,cell viability,[2],91.7%
UAAACAUACAUGUAAACCA,cell viability,[1],51.5%
same,cell viability,[2],106%
UAAACCAACAUGUAAACCA,cell viability,[1],64.7%
same,cell viability,[2],101%
UAAACCCACAUGUAAACCA,cell viability,[1],24.8%
same,cell viability,[2],49.8%
UAAACCGACAUGUAAACCA,cell viability,[1],89.5%
same,cell viability,[2],108%
UAAACCUACAUGUAAACCA,cell viability,[1],62.6%
same,cell viability,[2],103%
UAAACGAACAUGUAAACCA,cell viability,[1],62.8%
same,cell viability,[2],97.2%
UAAACGCACAUGUAAACCA,cell viability,[1],44.7%
same,cell viability,[2],102%
UAAACGGACAUGUAAACCA,cell viability,[1],55.6%
same,cell viability,[2],96.5%
UAAACGUACAUGUAAACCA,cell viability,[1],67%
same,cell viability,[2],101%
UAAACUAACAUGUAAACCA,cell viability,[1],76.1%
same,cell viability,[2],84.3%
UAAACUCACAUGUAAACCA,cell viability,[1],35.2%
same,cell viability,[2],84.6%
UAAACUGACAUGUAAACCA,cell viability,[1],68.9%
same,cell viability,[2],96.1%
UAAACUUACAUGUAAACCA,cell viability,[1],55.9%
same,cell viability,[2],108%
UAAAGAAACAUGUAAACCA,cell viability,[1],53.3%
same,cell viability,[2],85.9%
UAAAGACACAUGUAAACCA,cell viability,[1],36.8%
same,cell viability,[2],80.7%
UAAAGAGACAUGUAAACCA,cell viability,[1],60.9%
same,cell viability,[2],88%
UAAAGAUACAUGUAAACCA,cell viability,[1],55.4%
same,cell viability,[2],109%
UAAAGCAACAUGUAAACCA,cell viability,[1],52.4%
same,cell viability,[2],82.1%
UAAAGCCACAUGUAAACCA,cell viability,[1],25.7%
same,cell viability,[2],45%
UAAAGCGACAUGUAAACCA,cell viability,[1],52.6%
same,cell viability,[2],106%
UAAAGCUACAUGUAAACCA,cell viability,[1],31.2%
same,cell viability,[2],66.9%
UAAAGGAACAUGUAAACCA,cell viability,[1],60.3%
same,cell viability,[2],84.4%
UAAAGGCACAUGUAAACCA,cell viability,[1],35.5%
same,cell viability,[2],40.3%
UAAAGGGACAUGUAAACCA,cell viability,[1],57.7%
same,cell viability,[2],67.8%
UAAAGGUACAUGUAAACCA,cell viability,[1],57.6%
same,cell viability,[2],56.5%
UAAAGUAACAUGUAAACCA,cell viability,[1],55.9%
same,cell viability,[2],85.2%
UAAAGUCACAUGUAAACCA,cell viability,[1],38.7%
same,cell viability,[2],91.5%
UAAAGUGACAUGUAAACCA,cell viability,[1],58.2%
same,cell viability,[2],91.6%
UAAAGUUACAUGUAAACCA,cell viability,[1],41.4%
same,cell viability,[2],101%
UAAAUAAACAUGUAAACCA,cell viability,[1],68.1%
same,cell viability,[2],86.5%
UAAAUACACAUGUAAACCA,cell viability,[1],55%
same,cell viability,[2],70.2%
UAAAUAGACAUGUAAACCA,cell viability,[1],62%
same,cell viability,[2],112%
UAAAUAUACAUGUAAACCA,cell viability,[1],63.1%
same,cell viability,[2],115%
UAAAUCAACAUGUAAACCA,cell viability,[1],66.8%
same,cell viability,[2],109%
UAAAUCCACAUGUAAACCA,cell viability,[1],24.5%
same,cell viability,[2],79.6%
UAAAUCGACAUGUAAACCA,cell viability,[1],75%
same,cell viability,[2],92.2%
UAAAUCUACAUGUAAACCA,cell viability,[1],60.2%
same,cell viability,[2],90.4%
UAAAUGAACAUGUAAACCA,cell viability,[1],55.2%
same,cell viability,[2],72.5%
UAAAUGCACAUGUAAACCA,cell viability,[1],22.1%
same,cell viability,[2],34.9%
UAAAUGGACAUGUAAACCA,cell viability,[1],43.7%
same,cell viability,[2],76.2%
UAAAUGUACAUGUAAACCA,cell viability,[1],51.7%
same,cell viability,[2],68.9%
UAAAUUAACAUGUAAACCA,cell viability,[1],73.8%
same,cell viability,[2],96.3%
UAAAUUCACAUGUAAACCA,cell viability,[1],47.8%
same,cell viability,[2],71.7%
UAAAUUGACAUGUAAACCA,cell viability,[1],58.3%
same,cell viability,[2],77.8%
UAAAUUUACAUGUAAACCA,cell viability,[1],72.6%
same,cell viability,[2],92.2%
UAACAAAACAUGUAAACCA,cell viability,[1],53.2%
same,cell viability,[2],106%
UAACAACACAUGUAAACCA,cell viability,[1],41.4%
same,cell viability,[2],114%
UAACAAGACAUGUAAACCA,cell viability,[1],47.5%
same,cell viability,[2],99%
UAACAAUACAUGUAAACCA,cell viability,[1],59.7%
same,cell viability,[2],110%
UAACACAACAUGUAAACCA,cell viability,[1],30.8%
same,cell viability,[2],118%
UAACACCACAUGUAAACCA,cell viability,[1],23.5%
same,cell viability,[2],73.7%
UAACACGACAUGUAAACCA,cell viability,[1],38.8%
same,cell viability,[2],96.1%
UAACACUACAUGUAAACCA,cell viability,[1],30.1%
same,cell viability,[2],80.8%
UAACAGAACAUGUAAACCA,cell viability,[1],55.5%
same,cell viability,[2],114%
UAACAGCACAUGUAAACCA,cell viability,[1],13.4%
same,cell viability,[2],63.9%
UAACAGGACAUGUAAACCA,cell viability,[1],52.4%
same,cell viability,[2],92.5%
UAACAGUACAUGUAAACCA,cell viability,[1],38.8%
same,cell viability,[2],81%
UAACAUAACAUGUAAACCA,cell viability,[1],33.7%
same,cell viability,[2],101%
UAACAUCACAUGUAAACCA,cell viability,[1],18.6%
same,cell viability,[2],72.8%
UAACAUGACAUGUAAACCA,cell viability,[1],50.7%
same,cell viability,[2],111%
UAACAUUACAUGUAAACCA,cell viability,[1],53.7%
same,cell viability,[2],101%
UAACCAAACAUGUAAACCA,cell viability,[1],85.9%
same,cell viability,[2],122%
UAACCACACAUGUAAACCA,cell viability,[1],61.6%
same,cell viability,[2],97.2%
UAACCAGACAUGUAAACCA,cell viability,[1],60.5%
same,cell viability,[2],77.7%
UAACCAUACAUGUAAACCA,cell viability,[1],57.4%
same,cell viability,[2],99.6%
UAACCCAACAUGUAAACCA,cell viability,[1],78.3%
same,cell viability,[2],87.4%
UAACCCCACAUGUAAACCA,cell viability,[1],22.9%
same,cell viability,[2],2.63%

# Source: the supplement of paper PMC8948288
